In patent publication US20200330514A1 (TORQUE THERAPEUTICS, published 2020):

Target: T1, human CD45 receptor on the surface of human T cells (human, UniProt P08575 26-1306)
T1 construct: whole, on cells; also called cellular CD45; leukocyte common antigen
T1 sequence (looked up): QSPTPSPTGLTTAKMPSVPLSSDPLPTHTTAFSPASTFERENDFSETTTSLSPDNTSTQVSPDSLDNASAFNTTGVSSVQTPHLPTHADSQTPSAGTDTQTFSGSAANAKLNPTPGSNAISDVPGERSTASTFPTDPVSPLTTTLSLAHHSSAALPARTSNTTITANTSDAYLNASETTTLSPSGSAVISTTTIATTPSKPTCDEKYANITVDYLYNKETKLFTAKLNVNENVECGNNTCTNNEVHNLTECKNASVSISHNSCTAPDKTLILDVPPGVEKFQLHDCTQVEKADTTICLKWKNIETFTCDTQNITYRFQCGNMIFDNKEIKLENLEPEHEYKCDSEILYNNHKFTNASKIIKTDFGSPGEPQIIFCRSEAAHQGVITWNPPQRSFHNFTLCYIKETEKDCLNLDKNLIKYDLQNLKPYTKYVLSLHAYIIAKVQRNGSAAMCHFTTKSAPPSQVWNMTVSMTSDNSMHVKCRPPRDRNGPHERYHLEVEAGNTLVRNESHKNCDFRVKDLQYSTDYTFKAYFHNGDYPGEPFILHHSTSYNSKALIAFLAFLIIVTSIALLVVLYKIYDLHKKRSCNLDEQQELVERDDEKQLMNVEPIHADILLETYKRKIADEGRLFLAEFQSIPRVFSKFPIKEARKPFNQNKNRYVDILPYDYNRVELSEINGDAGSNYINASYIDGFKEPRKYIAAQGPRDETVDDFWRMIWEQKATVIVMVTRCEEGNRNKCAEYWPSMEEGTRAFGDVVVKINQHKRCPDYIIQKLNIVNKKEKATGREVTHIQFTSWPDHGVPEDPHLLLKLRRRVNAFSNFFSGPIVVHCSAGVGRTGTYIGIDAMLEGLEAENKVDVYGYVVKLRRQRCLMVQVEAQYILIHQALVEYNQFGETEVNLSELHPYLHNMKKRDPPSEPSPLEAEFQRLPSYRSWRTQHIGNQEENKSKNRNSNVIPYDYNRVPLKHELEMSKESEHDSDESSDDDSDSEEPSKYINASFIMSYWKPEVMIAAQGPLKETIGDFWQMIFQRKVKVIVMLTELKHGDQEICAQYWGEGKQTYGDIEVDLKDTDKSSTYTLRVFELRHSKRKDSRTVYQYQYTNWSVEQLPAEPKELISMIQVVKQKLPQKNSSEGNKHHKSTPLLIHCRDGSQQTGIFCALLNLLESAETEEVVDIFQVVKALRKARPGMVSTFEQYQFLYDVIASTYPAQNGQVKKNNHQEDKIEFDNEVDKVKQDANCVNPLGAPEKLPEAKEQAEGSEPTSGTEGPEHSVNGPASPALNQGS
Test: flow cytometry of pulsed human CD8 T cells, anti-IL-15 and anti-human IgG staining
Protocol: A mock pulse control in which cells were incubated in a 1:1 mixture of PBS and HBSS was used as a negative control. Cells were then stained for IL-15 using a fluorescently-labeled anti-IL-15 antibody or for IgG domains (Fab or Fc fragments) using a fluorescently-labeled polyclonal antibody that recognizes human IgG light and heavy chains. These antibodies provided detection of both IL-15 or the associated Fab or Fc fragments on the T cell surface. The hBC8(23)-IL15/sushi Fab protein yielded substantially higher levels of IL-15 staining than the IL15/sushi-Fc2 Da or IL15-N72D/sushiL77I-Fc proteins indicating a greater abundance of IL-15 on the cell surface (FIG. 8A). […] The cells were propagated in culture and monitored for IL-15 surface levels for three days following the pulse incubation. IL-15 detection remained above background for hBC8(23)-IL15/sushi Fab, while both of the IL15/sushi-Fc variants were indistinguishable from background one day after the pulse incubation (FIG. 8B).
Measurement of IFM on cell surface. Cells were analyzed by immunofluorescent staining to detect cell surface IFMs following 0, 1, and 3 days in culture following pulse incubation and washes. […]

B1: hBC8(23)-IL15/sushi Fab (other)
heavy: EVQLVESGGGLVQPGGSLRLSCAASGFDFSRYWMSWVRQAPGKGLEWIGEINPTSSTINFADSVKGRFTISRDNAKNSLYLQMNSVRDEDTAVYYCARGNYYRYGDAMDYWGQGTLVTVSSASTKGPSVFPLAPSSKSTSGGTAALGCLVKDYFPEPVTVSWNSGALTSGVHTFPAVLQSSGLYSLSSVVTVPSSSLGTQTYICNVNHKPSNTKVDKKVEPKSC
light: EIVLTQSPATLSLSLGERATISCRASKSVSTSGYSYLHWYQQKPGQAPKLLIYLASNRATGVPARFSGSGPGTDFTLTISSLEPEDFATYYCQHSRELPFTFGQGTKLEIKRTVAAPSVFIFPPSDEQLKSGTASVVCLLNNFYPREAKVQWKVDNALQSGNSQESVTEQDSKDSTYSLSSTLTLSKADYEKHKVYACEVTHQGLSSPVTKSFNRGECGGGGSGGGGSGGGGS[about 120 residues cut from this listing]
chain: ITCPPPMSVEHADIWVKSYSLYSRERYICNSGFKRKAGTSSLTECVLNKATNVAHWTTPSLKCIR
notes: also called hBC8Fab-IL15/sushi
**Q.** Does B1 bind?
**A.** Result: binds
